± gives the standard deviation of the averaged measurements. Over roughly 33,000 sequences, “E-score (dimensionless, -0.5 to 0.5)” has its median near -0.046; the highest 2% begin near 0.36. The list shows a part of the results.
Test system: T1, SpTbr T-box DNA-binding domain (GST fusion)
T1 sequence: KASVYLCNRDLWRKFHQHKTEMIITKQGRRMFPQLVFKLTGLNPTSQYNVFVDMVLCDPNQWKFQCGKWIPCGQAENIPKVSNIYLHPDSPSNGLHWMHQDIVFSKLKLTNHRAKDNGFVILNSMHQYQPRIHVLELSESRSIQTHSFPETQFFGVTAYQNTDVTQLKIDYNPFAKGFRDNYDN
Assay: PBM E-score of 8-mer (E-score (dimensionless, -0.5 to 0.5)); Tbr is Tbrain of the sea star Patiria miniata (Pm) or the sea urchin Strongylocentrotus purpuratus (Sp); higher = stronger binding preference; most listed sequences are background and not binding sites
Conditions: the construct has about 5 more residues each side
Method in brief: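 Universal Agilent oligonucleotide arrays, made double-stranded by primer extension, were incubated with 200 nM GST-fused Tbr T-box DNA-binding domain in PBS (pH 7.5). The protein was expressed in BL21 E. coli at 20 °C and purified by glutathione affinity chromatography. After scanning and quantification, the Universal PBM Analysis Suite assigned an enrichment E-score to each ungapped 8-mer, averaged over duplicate arrays.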

| Sequence | PBM E-score of 8-mer |
| --- | --- |
| TCCTGTCA | 0.185 ± 0.023 |
| CTAGGAAG | -0.184 ± 0.035 |
| ACTGCCCC | -0.127 ± 0.098 |
| AAGTTCGC | 0.264 ± 0.03 |
| TCAGTAGA | -0.0208 ± 0.049 |
| AAGTACAT | -0.193 ± 0.047 |
| GGAATGAA | -0.267 ± 0.059 |
| CAGAATAA | 0.0484 ± 0.089 |
| AGGCCTAG | -0.17 ± 0.021 |
| AGTTCAAA | -0.208 ± 0.046 |
| AACCCTAT | -0.21 ± 0.046 |
| GCATTATA | -0.166 ± 0.03 |
| ATAAATAG | -0.167 ± 0.011 |
| CTGCAGAC | -0.109 ± 0.029 |
| GCTCAATA | -0.021 ± 0.057 |
| CCAGATAC | 0.00734 ± 0.012 |
| GGTGCGAC | 0.452 ± 0.0081 |
| CAATCTAC | -0.0895 ± 0.0061 |
| GCTCGGCA | -0.0879 ± 0.036 |
| CTGAGTAC | -0.0662 ± 0.0056 |
| CCGGCATA | -0.326 ± 0.048 |
| CGTCTAAA | -0.0354 ± 0.013 |

| Sequence | PBM E-score of 8-mer |
| --- | --- |
| AACAATGC | -0.018 ± 0.0069 |
| TCTCCACA | 0.102 ± 0.021 |
| CACTGCGG | -0.0547 ± 0.0084 |
| CAGAGGCC | -0.112 ± 0.11 |
| GTATGGAC | -0.2818 ± 0.0027 |
| GCGCACGA | 0.277 ± 0.047 |
| GGATATCA | 0.049 ± 0.0044 |
| AAGACCCT | -0.233 ± 0.0045 |
| AAGGACCC | -0.191 ± 0.026 |
| GAAAATCC | -0.171 ± 0.075 |
| ACGAGATA | 0.003 ± 0.08 |
| CCTATTCA | -0.0306 ± 0.042 |
| AACTCCCC | -0.0113 ± 0.035 |
| TCTACTCA | -0.0396 ± 0.04 |
| CCGTAATC | -0.196 ± 0.031 |
| CACTTGGC | 0.212 ± 0.0033 |
| CCGTCGTA | -0.0573 ± 0.07 |
| CCTTAGAG | -0.0243 ± 0.041 |
| AGGCGATG | 0.197 ± 0.062 |
| CGAACTCG | 0.137 ± 0.072 |
| CCTCAGCA | 0.142 ± 0.0032 |
| GAGAGGAC | -0.0122 ± 0.035 |

| Sequence | PBM E-score of 8-mer |
| --- | --- |
| TTATAAAA | -0.224 ± 0.033 |
| GAACTGTC | 0.186 ± 0.032 |
| ACTCGCAG | 0.0332 ± 0.026 |
| AGGCCTAA | -0.085 ± 0.025 |
| AACTCCCA | -0.0267 ± 0.12 |
| ACACCTTG | 0.4831 ± 0.0013 |
| CCCCTGTC | 0.00408 ± 0.013 |
| CCGTTTTC | -0.0965 ± 0.055 |
| ATAATATG | 0.0799 ± 0.022 |
| ACCTTGTA | 0.0453 ± 0.022 |
| CACGAAAA | -0.133 ± 0.05 |
| GATCCCTA | -0.0535 ± 0.023 |
| GTCGGTGA | 0.0324 ± 0.0083 |
| CAAAACTA | -0.0238 ± 0.00022 |
| AAGCTGCC | 0.0478 ± 0.00081 |
| AATCCTCA | -0.138 ± 0.024 |
| CGCTATCA | 0.229 ± 0.011 |
| GGATCGAA | -0.139 ± 0.015 |
| CAACCGTA | -0.21 ± 0.02 |
| AAATAGCG | 0.169 ± 0.013 |
| GACGCACC | 0.129 ± 0.022 |
| CCGAGAAC | 0.28 ± 0.016 |

| Sequence | PBM E-score of 8-mer |
| --- | --- |
| ACGCTGCA | -0.025 ± 0.089 |
| AGGATCCA | -0.0697 ± 0.0047 |
| AAGCTCAT | -0.137 ± 0.0061 |
| CCTCACCC | 0.207 ± 0.054 |
| GCTCTCAC | 0.312 ± 0.028 |
| GCAAATCA | 0.0985 ± 0.064 |
| ATATCGTC | 0.134 ± 0.027 |
| AACCTCTT | -0.131 ± 0.01 |
| AACGCTAC | 0.0932 ± 0.059 |
| AAGTCCGC | 0.133 ± 0.018 |
| CTCCGCTA | 0.0268 ± 0.034 |
| GCTACCGA | 0.0542 ± 0.037 |
| CGCCTGCC | 0.249 ± 0.035 |
| AGGTCCGG | -0.307 ± 0.02 |
| ACAGAACG | 0.0698 ± 0.048 |
| GATCGAAA | -0.0305 ± 0.023 |
| GAAGATTC | -0.0539 ± 0.069 |
| AAGAGTTC | -0.159 ± 0.034 |
| GAAAGTTC | -0.00821 ± 0.013 |
| ATAAGGTA | 0.0128 ± 0.0056 |
| TCCTTCGA | -0.122 ± 0.016 |
| CCGCCTAA | -0.195 ± 0.042 |

| Sequence | PBM E-score of 8-mer |
| --- | --- |
| GCTGCCGA | 0.00876 ± 0.0086 |
| GTACTCTA | -0.238 ± 0.074 |
| ACAACGCT | 0.177 ± 0.073 |
| AGTAGGTA | -0.00286 ± 0.076 |
| CTTTCGCC | -0.043 ± 0.078 |
| GAACACTC | 0.00577 ± 0.058 |
| CGGTAGAC | -0.244 ± 0.01 |
| AATTGCGA | 0.239 ± 0.058 |
| AACGTCCT | -0.1031 ± 0.00059 |
| AGACAAGA | -0.16 ± 0.036 |
| TAACACAA | 0.256 ± 0.075 |
| AGCTTGGA | -0.126 ± 0.093 |
| ACAGGTCC | 0.0582 ± 0.031 |
| AATATCAA | -0.0408 ± 0.087 |
| AGATCTTC | 0.0938 ± 0.043 |
| GATAGAAC | -0.107 ± 0.018 |
| ATTGCTGA | -0.0995 ± 0.059 |
| ATCCGGAC | -0.113 ± 0.026 |
| CTGTAATA | 0.061 ± 0.038 |
| ATAAAAAT | -0.123 ± 0.069 |
| CCCGGGGA | -0.179 ± 0.036 |
| CTCGAGCC | -0.154 ± 0.069 |

— the supplement of paper PMC4166925
